The record followed here is PubChem BioAssay AID2202238 (Ras Initiative Chemistry Research Team, Frederick National …, 2025).

Screen size: about 2,200 compounds; fewer than 10 were called active. The list shows a part of the results. Entries without a call are filed as inconclusive in the source.

The assay concerns the target GTPase KRas (Homo sapiens) (UniProt P01116). In words: Covalent labelling of cysteine mutants by fragments, read by mass spectrometry (AID 2202238). Also noted: protein at 5 µM with 500 µM competing thiol for 1.5 h. Conditions: KRAS G12D cysteine mutants, disulfide tethering, MALDI-TOF labeling; stronger effect = higher value; H27C mutant labeling; fragment at 500 µM.
Sequence of UniProt P01116 (P01116 whole entry, looked up, the tested form may be a part): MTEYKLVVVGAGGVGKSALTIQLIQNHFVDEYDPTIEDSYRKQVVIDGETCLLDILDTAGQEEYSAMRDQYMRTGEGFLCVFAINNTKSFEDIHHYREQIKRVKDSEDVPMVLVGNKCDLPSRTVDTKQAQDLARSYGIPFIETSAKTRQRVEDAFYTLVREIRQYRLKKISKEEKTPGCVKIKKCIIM
`O=C(CCS)Nc1c(-c2ccccc2)[nH][nH]c1=O`: the percent labeling came to 16%.
The result for `O=C(NCCS)C(CC1CCCO1)C(F)(F)F` (configuration not stated) reads 27.5%; that for `CCOc1ccc(NC(=O)CCS)c2ncccc12`, 30.8%.
In the case of `O=C(NCCS)c1cc(-c2cnc3[nH]ccc3c2)ccn1`, the percent labeling was 34.5%.
The value for `Cc1cc(CNC(=O)CCS)ccc1Oc1ccc(F)cc1` was 24.9%; that for `O=C(NCCS)c1cn(CC2CCOC2)nn1` (configuration not stated) was 35.8%.
The value for `Cc1c([C@H]2[C@H](C(=O)NCCS)CC(=O)N2C2CC2)cnn1C` was 27.7%.
In turn, `O=C(NCCS)c1cccc(NC(=O)c2ccc3nc[nH]c3c2)c1` yielded a percent labeling of 32.5%.
The value for `O=C(CCc1nc2ccccc2n1-c1ccccc1)NCCS` was 25.5%; that for `O=C(Cn1nc(-c2ccccc2)ccc1=O)NCCS` was 41.1%.
The value for `Cc1nc2nc(C(=O)NCCS)cc(C(C)(C)C)n2n1` was 34.3%; that for `O=C(NCCS)c1cnc(C2CCCO2)s1` (configuration not stated) was 20.3%.
In turn, `O=C(CCS)NCC1CN(Cc2ccccc2)Cc2nccn2C1` (configuration not stated) returned a percent labeling of 33.1%.
`O=C(CCS)N1CCC(n2c(=O)[nH]c3cccnc32)CC1` had a percent labeling of 54.4%.
The value for `O=C(CCS)Nc1ccc(-n2ccccc2=O)cc1F` was 47.3%; that for `CC1(C)CN(C(=O)CCS)CCN(C(=O)OC(C)(C)C)C1` was 40.4%; that for `CC1CCc2cc(F)cc3c(=O)c(C(=O)NCCS)cn1c23` (configuration not stated) was 43.5%.
`O=C(CCS)NC1CCC(C(F)(F)F)CC1` (configuration not stated): the percent labeling was determined as 33.9%.
On to `CCc1nc(COc2ccc(C(=O)NCCS)cc2)no1`, for which the percent labeling was 32.7%.
The result for `O=C(CCS)Nc1ccc(Oc2ccc(F)cc2)c2ccncc12` reads 18.1%; that for `O=C(CCS)NCc1cc(=O)[nH]c(C2CC2)n1`, 31%; that for `Cc1nc(NC(=O)CCS)sc1Cc1ccccc1`, 38%.
For `O=C(CCS)Nc1cnn(-c2ccccc2)c1`, the percent labeling was 27.1%.
`O=C1NC(=O)C2(CCC(C(=O)NCCS)CC2)N1` (configuration not stated) had a percent labeling of 41.4%.
The result for `O=C(CCS)Nc1ccnn1Cc1ccc(Cl)cc1` reads 42%.
The value for `COCc1nc2sc(C(=O)NCCS)c(C)c2c(=O)[nH]1` was 46.7%.
The result for `O=C(NCCS)C1CCCN(c2ncnc3sccc23)C1` (configuration not stated) reads 40.2%.
